Source: paper PMC4336329 (PLoS ONE, 2015)
Screen size: about 310,000 compounds; about 14,000 (4.5%) showed an effect of 50% or more. Effects have a minus sign here. This is one part of the list.

target: human ether-à-go-go-related gene (hERG) potassium channel (human, UniProt Q12809); assay: primary screen, population patch clamp on CHO cells stably expressing hERG
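Also: peak tail current of the secondary pulse compared with the same well before compound.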

Sequence of human ether-à-go-go-related gene (hERG) potassium channel (Q12809 whole entry, looked up): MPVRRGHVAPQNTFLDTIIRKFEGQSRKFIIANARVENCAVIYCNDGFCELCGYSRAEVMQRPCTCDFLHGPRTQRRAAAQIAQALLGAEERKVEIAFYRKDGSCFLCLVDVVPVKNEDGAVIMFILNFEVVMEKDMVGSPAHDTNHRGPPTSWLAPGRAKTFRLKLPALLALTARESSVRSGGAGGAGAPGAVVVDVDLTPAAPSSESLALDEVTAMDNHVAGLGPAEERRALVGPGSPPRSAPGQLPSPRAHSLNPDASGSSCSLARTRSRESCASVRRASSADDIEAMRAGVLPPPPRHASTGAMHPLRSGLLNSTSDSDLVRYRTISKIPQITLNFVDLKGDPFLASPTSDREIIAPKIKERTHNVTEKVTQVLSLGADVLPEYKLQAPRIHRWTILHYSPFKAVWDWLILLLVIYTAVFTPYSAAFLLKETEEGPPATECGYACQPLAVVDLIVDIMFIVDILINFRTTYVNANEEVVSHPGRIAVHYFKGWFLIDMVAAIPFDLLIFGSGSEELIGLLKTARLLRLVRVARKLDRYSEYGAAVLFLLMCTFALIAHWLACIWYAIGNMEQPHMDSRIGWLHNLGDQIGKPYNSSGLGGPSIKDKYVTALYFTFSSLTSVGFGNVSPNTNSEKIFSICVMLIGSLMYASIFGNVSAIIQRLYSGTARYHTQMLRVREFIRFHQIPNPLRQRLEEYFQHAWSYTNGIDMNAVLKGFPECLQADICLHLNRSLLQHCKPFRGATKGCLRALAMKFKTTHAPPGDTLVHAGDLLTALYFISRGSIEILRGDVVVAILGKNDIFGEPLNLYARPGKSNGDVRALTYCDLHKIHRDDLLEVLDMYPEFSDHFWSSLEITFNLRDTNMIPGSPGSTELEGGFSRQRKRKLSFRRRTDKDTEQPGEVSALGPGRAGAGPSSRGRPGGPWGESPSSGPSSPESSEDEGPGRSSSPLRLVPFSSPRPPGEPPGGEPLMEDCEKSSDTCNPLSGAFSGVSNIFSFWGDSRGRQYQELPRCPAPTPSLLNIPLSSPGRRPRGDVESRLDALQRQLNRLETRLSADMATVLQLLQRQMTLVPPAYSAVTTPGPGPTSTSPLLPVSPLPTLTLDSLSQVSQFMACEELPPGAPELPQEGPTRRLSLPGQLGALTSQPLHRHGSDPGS

Row | Compound | hERG current change (%, negative = inhibition) at 10uM [%]
1 | Cc1cccc(NC(=O)C(C)SCc2nc3sc(C)c(C)c3c(=O)[nH]2)n1 (centres unmarked) | 3.58
2 | CCNC(=O)/N=C1/NC(=O)C(C(C)C)O1 (centres unmarked) | 24.7
3 | CCOC(=O)c1c(C)[nH]c(C(=O)CN2C(=O)NC3(CCCC3)C2=O)c1C | -1.87
4 | COc1ccc(C(=O)NCc2nnc(SCC(=O)Nc3ccccc3OC)n2C)cc1 | 0.403
5 | CCOC(=O)c1cnc(N2CCOCC2)[nH]c1=O | 26.2
6 | O=C(Nc1cccc(Cl)c1)N1CCC(CO)(CCOc2ccccc2)CC1 | -58.6
7 | COc1ccc(N2CCN(C(=O)CCCn3nnnc3CN3CCOCC3)C(C)C2)cc1 (centres unmarked) | -2.99
8 | CCOc1ccc(S(=O)(=O)N2CCCCC2)cc1NC(=O)CSCc1c(C)noc1C | -39.5
9 | CC1=C(C(=O)Nc2cc(-c3cccc(F)c3)[nH]n2)C2(CCCCC2)OC1=O | 4.51
10 | CC(C)(C)C(=O)C(Cc1ccccc1Cl)n1cncn1 (centres unmarked) | 1.87
11 | COc1ccc(NC(=O)/C=C/c2cc(OC)c(OC)c(OC)c2)cn1 | 6.02
12 | CCCCCCCCC(NC(=O)c1ccc(C#N)cc1)C(=O)NCCC (centres unmarked) | -6.04
13 | Cc1cccc(C)c1N1CCN(C(=O)N2CCOCC2)CC1 | -3.47
14 | CCOc1cc2[nH]c(=O)n(CCC(=O)NCc3ccc(OC)cc3)c(=O)c2cc1OCC | 5.71
15 | COC(=O)c1ccc(N=C2SCC(=O)N2C)cc1 | 14.3
16 | CCN(CC(=O)NCc1ccccn1)S(=O)(=O)c1ccc(Cl)cc1 | -4.93
17 | CC(=O)Nc1ccccc1C(=O)C(=O)Nc1ccccc1 | 9.65
18 | CCCCN(C(=O)c1cc(OC)c(OC)c(OC)c1)C1=CC2CCC(C1)N2C.Cl (centres unmarked) | -20.2
19 | O=C(O)c1ccc2c(c1)C(=O)N(c1ccc(C(=O)OCC(=O)c3ccccc3)cc1)C2=O | 23.4
20 | Cc1cc(NC(=O)CCN2C(=O)c3ccccc3C2=O)no1 | 12.6
21 | COC(=O)C1=C(C)N(Cc2ccc(C)cc2)C(=O)/C1=C\c1ccc(O)c(OC)c1 | 6.31
22 | CCC(C)(C)NC(=O)C(c1cccc(OC)c1OC)N(Cc1ccccc1)C(=O)CCC(=O)Nc1cc(C)on1 (centres unmarked) | -4.14
23 | Cc1ccc(-n2nnnc2-c2cnn(-c3cccc(F)c3)c2C(F)(F)F)cc1 | -7.43

Row | Compound | hERG current change (%, negative = inhibition) at 10uM [%]
24 | O=C(O)c1cccc([N+](=O)[O-])c1C(=O)Nc1nc2ccccc2s1 | 37.4
25 | CCOC(=O)CCCCC(=O)c1[nH]c(=O)[nH]c1C[n+]1ccccc1.[Cl-] | 26.4
26 | COc1cccc(N2C(=O)NC(=O)/C(=C/c3ccc([N+](=O)[O-])s3)C2=O)c1 | 7.16
27 | O=C(NNc1ccc([N+](=O)[O-])cc1)c1ccccc1Cl | 3.45
28 | Cc1ccc(C(C)C)c(OCCCn2ccnc2C)c1.O=C(O)C(=O)O | -63.8
29 | CC(C)=CCC(C)(C)C1OCCN1C(=O)c1ccccc1 (centres unmarked) | -18.7
30 | CC(=O)Nc1ccc(C(=O)NCCc2ccccc2)cc1 | 12.9
31 | O=C(N/N=C/C=C/c1ccccc1)c1cccnc1 | -10.3
32 | O=C(CCN1C(=O)c2ccccc2C1=O)C1=NN[C@@H]2C(=O)N(c3cccc(Cl)c3)C(=O)[C@H]12 | 11.6
33 | O=C(c1ccc(-c2ccccc2)cc1)N1CCN(c2ccccc2)CC1 | 14.7
34 | COc1ccc(Br)cc1C(=O)NC(=S)Nc1c(C)n(C)n(-c2ccccc2)c1=O | 24.8
35 | CC(CNS(=O)(=O)c1ccc2c(c1)NC(=O)CCS2)c1ccccc1 (centres unmarked) | -8.52
36 | CCC(=O)N1CCc2cc(S(=O)(=O)NC(C(=O)N3CCc4ccccc4C3)C(C)C)ccc21 (centres unmarked) | -10.2
37 | CC1(C)CC(=O)C2=C(C1)N=c1s/c(=C/c3ccc(F)c(F)c3)c(=O)n1C2c1ccc(F)cc1 (centres unmarked) | 10.8
38 | CCn1c(Cc2ccccc2)nnc1SCC(=O)Nc1ccc2c(c1)OCCO2 | -7.3
39 | CC1CCN(C(=O)c2[nH]cnc2C(=O)N[C@@H](C)c2ccccc2)CC1 | -3.53
40 | O=S(=O)(c1ccc(F)cc1)N1CCN(c2ncccn2)CC1 | 7.6
41 | CC(=O)N1CCCc2cc(S(=O)(=O)N3CCCC(C(=O)N4CCN(c5ccccc5)CC4)C3)ccc21 (centres unmarked) | -21.3
42 | CCCN(CCC)CCCNc1ccc2nnc(-c3ccc(F)cc3)n2n1 | -55.9
43 | COCCCN=CC1=C(O)CC(c2ccccc2)CC1=O (centres unmarked) | 17.9
44 | Cc1ccccc1CNC(=O)Nc1cccs1 | 3.67
45 | CC(=O)c1cc(F)c(N2CCCC2)cc1C | 5.63
46 | O=S(=O)(Nc1ncnc2sc3c(c12)CCC3)c1ccc2ccccc2c1 | 0.923

Row | Compound | hERG current change (%, negative = inhibition) at 10uM [%]
47 | CC(=O)c1c(C)nn(C(=O)c2cccs2)c1C | 10
48 | COCC1CCCCN1C(=O)c1ccc(OC)c(OC2CCN(C(C)C)CC2)c1 (centres unmarked) | 14.7
49 | Cl.Nc1ccc2c(c1)OC1(CCCC1)O2 | 45
50 | O=C(O)CSc1nc2sc3c(c2c(=O)n1Cc1ccccc1)CCCCC3 | 26.5
51 | COCCCN1C(=O)C(O)=C(C(=O)c2ccc(C)o2)C1c1cccc(Br)c1 (centres unmarked) | 8.25
52 | CN1C(=O)/C(=C2/C=CC=CN2C)OC1=S | -4.71
53 | Cc1cc(NC(=O)/C=C/c2ccccc2Cl)no1 | 14.1
54 | N#Cc1ccsc1NC(=O)C1CC(=O)N(Cc2ccccc2)C1 (centres unmarked) | -18.4
55 | CCCC(C)NC(=O)C1CC(=O)N(CCc2ccc(F)cc2)C1 (centres unmarked) | 9.07
56 | Cc1ccnc(NS(=O)(=O)c2cccs2)c1 | 11.1
57 | CC(=O)c1ccccc1OCCOCCOc1ccccc1C(C)=O | -34.9
58 | O=C(O)CSc1nc2ccccc2s1 | 7.83
59 | CC(=N\Nc1ccccc1)/C(=N/O)C(=O)Nc1ccccc1 | 4.03
60 | O=C1c2cnc3nc(SCc4cccc(Cl)c4)nn3c2CC2c3ccccc3CCN12 (centres unmarked) | -7.81
61 | CCN(CC)CCn1c2c(c(SCC(=O)Nc3ccc(C(C)C)cc3)nc1=O)CCCC2 | -68.3
62 | CC1CN(C(=O)NCc2ccccc2)c2cc(Cl)ccc2O1 (centres unmarked) | 10.8
63 | Cc1cc(C(=O)O)ccc1-n1c(C)cc(C=C2C(=O)c3ccccc3C2=O)c1C | 11.9
64 | O=S(=O)(Nc1ccc(O)c(Sc2nc3ccccc3s2)c1)c1ccc(F)cc1 | 8.72
65 | CC(c1ccccc1)n1cncc1C(=O)O (centres unmarked) | 18
66 | COC(=O)Oc1ccc(/C=N/NC(=O)CSCc2ccc(Cl)cc2)cc1OC | -15.5
67 | COc1ccc(C(=O)NCc2nnc(SCC(=O)NO)n2Cc2ccccc2)cc1 | -5.01
68 | Clc1ccccc1/C=C/c1ccnc2ccccc12 | 1.03
69 | CCOC(=O)CCNC(=O)N1CCCC(N(C)CCc2ccc(OC)c(OC)c2)C1 (centres unmarked) | -6.37

Row | Compound | hERG current change (%, negative = inhibition) at 10uM [%]
70 | CCN1CCN(c2ncnc3sc4c(c23)CCC(C)C4)CC1 (centres unmarked) | -37.2
71 | CC(/C=C/c1ccccc1)=N\NC(=O)c1ccc2c(c1)OCCO2 | 3.3
72 | O=C(NCC(O)c1ccc([N+](=O)[O-])cc1)c1cccc(S(=O)(=O)N2CCCC2)c1 (centres unmarked) | -66.8
73 | Cn1cc(C(=O)OCC(=O)NC2(C#N)CCCC2)c2ccccc21 | 0.00778
74 | COc1ccc(S(=O)(=O)N(C)C)cc1NCC(=O)Nc1ccc(Br)c(C)c1 | -6.82
75 | CCOC(=O)COc1ccc2c(=O)c(-c3ccccc3)coc2c1 | 4.82
76 | Oc1ccc(Cl)cc1C1=NNC(c2ccc(Cl)cc2)C1 (centres unmarked) | 2.89
77 | O=C(CCn1cnnn1)Nc1ccc(F)cc1 | 2.01
78 | O=S1(=O)CC(O)C(N2CCCCC2)C1 (centres unmarked) | -0.658
79 | CC(C)(C)C(=O)c1cn(CC(=O)NCc2ccc3c(c2)OCO3)c2ccccc12 | 0.962
80 | C=CCNC(=O)c1ccc(CSc2nc3ccccc3s2)cc1 | 1.1
81 | Cc1cc(NC(=O)CC(C)C)c(=O)n(Cc2ccccc2F)c1 | 15.1
82 | Cc1ccc(C(C)C)c(OCC(=O)OCC(=O)c2c(N)n(C)c(=O)n(C)c2=O)c1 | 3.36
83 | O=C(N/N=C/c1cc([N+](=O)[O-])cc([N+](=O)[O-])c1O)C(O)(c1ccccc1)c1ccccc1 | -4.37
84 | COCC(C)n1c(C)cc(C(=O)COC(=O)c2ccc3ncsc3c2)c1C (centres unmarked) | -28.7
85 | CCOc1ncccc1C(=O)OCC(=O)N1CCc2ccccc21 | 7.12
86 | COCC1CCN(C(=O)CCc2nnc(CCCCc3ccccc3)o2)CC1 | -4.75
87 | COc1cccc(C(=O)NCCCNC(=O)c2cccnc2)c1 | 23.2
88 | Brc1ccc(CSc2nnc(-c3ccccn3)n2Cc2ccco2)cc1 | -16.8
89 | CC1=C(C(=O)Nc2cc(C(=O)NCCCOC(C)C)ccc2C)SCCO1 | 17.9
